Substitutions are numbered along the chain they refer to; changes in the protein carry UniProt numbers. This is one part of the list.
T1: RBFOX1 RRM RbFoxmut (Fox-RRM*) (Homo sapiens, UniProt Q9NWB1 109-208, R118D;E147R;N151S;E152T)
T1 sequence: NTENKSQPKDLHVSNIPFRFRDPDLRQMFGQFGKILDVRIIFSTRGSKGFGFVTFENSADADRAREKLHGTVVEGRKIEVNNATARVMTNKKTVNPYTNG

B1: AGCGAUU (DNA:RNA)
RNA: GGGAGACCGGAAUUCAGAUUGUCCAGCGAUUUUAAAUCCCGUCGUAGCCACCA
DNA 1: CAATCTGAATTCCGGTCTCCC
DNA 2: TGGTGGCTACGACGGGATT
B2: GUUACGG (DNA:RNA)
RNA: GGGAGACCGGAAUUCAGAUUGUCCGUUACGGUUAAAUCCCGUCGUAGCCACCA
DNA 1: CAATCTGAATTCCGGTCTCCC
DNA 2: TGGTGGCTACGACGGGATT
B3: CCAAACG (DNA:RNA)
RNA: B2 RNA with G25C, U26C, U27A, C29A, G30C
DNA 1: CAATCTGAATTCCGGTCTCCC
DNA 2: TGGTGGCTACGACGGGATT
B4: CCGCGCC (DNA:RNA)
RNA: GGGAGACCGGAAUUCAGAUUGUCCCCGCGCCUUAAAUCCCGUCGUAGCCACCA
DNA 1: CAATCTGAATTCCGGTCTCCC
DNA 2: TGGTGGCTACGACGGGATT
B5: CAGACAU (DNA:RNA)
RNA: B4 RNA with C26A, C28A, G29C, C30A, C31U
DNA 1: CAATCTGAATTCCGGTCTCCC
DNA 2: TGGTGGCTACGACGGGATT
B6: UUGUGCG (DNA:RNA)
RNA: B4 RNA with C25U, C26U, C28U, C31G
DNA 1: CAATCTGAATTCCGGTCTCCC
DNA 2: TGGTGGCTACGACGGGATT
B7: GAUAACC (DNA:RNA)
RNA: B2 RNA with U26A, C29A, G30C, G31C
DNA 1: CAATCTGAATTCCGGTCTCCC
DNA 2: TGGTGGCTACGACGGGATT
B8: CGGUAGU (DNA:RNA)
RNA: B1 RNA with A25C, C27G, G28U, U30G
DNA 1: CAATCTGAATTCCGGTCTCCC
DNA 2: TGGTGGCTACGACGGGATT
B9: AGUGAAU (DNA:RNA)
RNA: B1 RNA with C27U, U30A
DNA 1: CAATCTGAATTCCGGTCTCCC
DNA 2: TGGTGGCTACGACGGGATT
B10: GUCGCCC (DNA:RNA)
RNA: B2 RNA with U27C, A28G, G30C, G31C
DNA 1: CAATCTGAATTCCGGTCTCCC
DNA 2: TGGTGGCTACGACGGGATT
B11: GUUUGCC (DNA:RNA)
RNA: B4 RNA with C25G, C26U, G27U, C28U
DNA 1: CAATCTGAATTCCGGTCTCCC
DNA 2: TGGTGGCTACGACGGGATT
B12: AAAUGUC (DNA:RNA)
RNA: B1 RNA with G26A, C27A, G28U, A29G, U31C
DNA 1: CAATCTGAATTCCGGTCTCCC
DNA 2: TGGTGGCTACGACGGGATT
B13: UCACAGG (DNA:RNA)
RNA: B4 RNA with C25U, G27A, G29A, C30G, C31G
DNA 1: CAATCTGAATTCCGGTCTCCC
DNA 2: TGGTGGCTACGACGGGATT
B14: AUUUGAA (DNA:RNA)
RNA: B2 RNA with G25A, A28U, C29G, G30A, G31A
DNA 1: CAATCTGAATTCCGGTCTCCC
DNA 2: TGGTGGCTACGACGGGATT
B15: GUGCACG (DNA:RNA)
RNA: B4 RNA with C25G, C26U, G29A, C31G
DNA 1: CAATCTGAATTCCGGTCTCCC
DNA 2: TGGTGGCTACGACGGGATT
B16: AAAUCCU (DNA:RNA)
RNA: B1 RNA with G26A, C27A, G28U, A29C, U30C
DNA 1: CAATCTGAATTCCGGTCTCCC
DNA 2: TGGTGGCTACGACGGGATT
B17: CCCGUCA (DNA:RNA)
RNA: B4 RNA with G27C, C28G, G29U, C31A
DNA 1: CAATCTGAATTCCGGTCTCCC
DNA 2: TGGTGGCTACGACGGGATT
B18: GCCAUGG (DNA:RNA)
RNA: B2 RNA with U26C, U27C, C29U
DNA 1: CAATCTGAATTCCGGTCTCCC
DNA 2: TGGTGGCTACGACGGGATT
B19: AUCGAGG (DNA:RNA)
RNA: B1 RNA with G26U, U30G, U31G
DNA 1: CAATCTGAATTCCGGTCTCCC
DNA 2: TGGTGGCTACGACGGGATT
B20: CUGCUCU (DNA:RNA)
RNA: B4 RNA with C26U, G29U, C31U
DNA 1: CAATCTGAATTCCGGTCTCCC
DNA 2: TGGTGGCTACGACGGGATT

molecular target: T1, RBFOX1 RRM RbFoxmut (Fox-RRM*); test: EMSA; HiTS-Eq, 1 nM pool, 10 min; buffer printed only for the single-RNA assays: 10 mM Tris pH 7.5, 150 mM NaCl, 3.4 mM EDTA, 0.001% NP-40, 30 C; conditions: tags: His6 N-terminal (pET28a); label: 5' 32P
In short: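 These values rest on relative association constants, computed from read-count changes of each RNA species versus the control reaction and normalised to the cognate motif. Reads came from free RNA recovered by 8% native PAGE after purified RbFox RRM (wild type or mutant) at increasing concentrations was equilibrated for 10 min in 50 µL with 1 nM of a 5′-radiolabelled pool with 7 randomized nucleotides and DNA-annealed flanks.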

Binder | binding signal
B1 | 0.072 KA relative to UGCAUGU
B2 | 0.0691 KA relative to UGCAUGU
B3 | 0.138 KA relative to UGCAUGU
B4 | 0.184 KA relative to UGCAUGU
B5 | 0.0629 KA relative to UGCAUGU
B6 | 0.274 KA relative to UGCAUGU
B7 | 0.0699 KA relative to UGCAUGU
B8 | 0.138 KA relative to UGCAUGU
B9 | 0.135 KA relative to UGCAUGU
B10 | 0.0754 KA relative to UGCAUGU
B11 | 0.25 KA relative to UGCAUGU
B12 | 0.145 KA relative to UGCAUGU
B13 | 0.09 KA relative to UGCAUGU
B14 | 0.0832 KA relative to UGCAUGU
B15 | 0.66 KA relative to UGCAUGU
B16 | 0.0657 KA relative to UGCAUGU
B17 | 0.0937 KA relative to UGCAUGU
B18 | 0.12 KA relative to UGCAUGU
B19 | 0.0934 KA relative to UGCAUGU
B20 | 0.0976 KA relative to UGCAUGU

— PMC9911399, “Two distinct binding modes provide the RNA-binding protein RbFox with extraordinary sequence specificity”
